The source of these data is the supplement of paper PMC4723716.

± gives the uncertainty stated by the source. Over roughly 9,900 compounds, “viability index relative to DMSO control” has its median near 1; the lowest 2% begin near 0.85. This is one part of the list.

The subject of the assay is Plasmodium falciparum NF54 stage V gametocytes. As to the kind of experiment: viability index relative to DMSO control (fraction); higher = less gametocyte killing. The note with it: 2.5 µM, library set: Broad Institute DOS, incubation time: 72 h. The essentials: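 Stage V gametocytes of P. falciparum NF54 were held in serum-free screening medium at 0.75% gametocytemia and 1.25% hematocrit, 10 µl per well of a 1,536-well plate, and exposed to compound at 2.5 µM for 72 hr at 37°C under low oxygen. A 3 µl mix of 2.5 µM MitoTracker Red CMXRos with 0.13% saponin was then added for one to two hours, after which one field per well was imaged and red particles of 20–70 µm2 were counted. The viability index equals this count divided by the plate mean from wells given solvent alone.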
In the case of `Cc1noc(C)c1S(=O)(=O)N(C)C[C@H]1OCCCC[C@@H](C)Oc2ccc(NS(=O)(=O)c3cn(C)cn3)cc2C(=O)N([C@@H](C)CO)C[C@H]1C`, the viability index was found to be 1.14 ± 0.098.
Take `O=C(CN1CCOCC1)N1CC[C@@H]2[C@H](CO)Nc3ccc(Br)cc3[C@@H]21`: the viability index stood at 1.14 ± 0.039.
As to `CCN1CC(=O)N2[C@H](C1)[C@@H](c1ccc(Br)cc1)[C@@H]2CO`, the viability index worked out at 1.01 ± 0.035.
`CCC(=O)Nc1ccc2c(c1)C(=O)N(C)C[C@@H](OC)[C@@H](C)CN(Cc1nccs1)[C@H](C)CO2` returned a viability index of 1.16 ± 0.082.
The molecule `C[C@@H]1CCCCO[C@H](CN(C)C(=O)C2CCCCC2)[C@@H](C)CN([C@@H](C)CO)C(=O)c2cc(NS(=O)(=O)c3ccccc3)ccc2O1` came in with a viability index of 1.027 ± 0.0049.
The molecule `C[C@@H]1CN([C@@H](C)CO)C(=O)c2cccc(NS(=O)(=O)c3cn(C)cn3)c2O[C@@H]1CN(C)Cc1ccc(Oc2ccccc2)cc1` yielded a viability index of 0.986 ± 0.093.
`O=C(Nc1ccc2c(c1)[C@@H]1C[C@@H](CC(=O)N3CCCCC3)O[C@@H](CO)[C@@H]1O2)NC1CCCCC1` registered a viability index of 0.932 ± 0.19.
In turn, `COc1cccc(NC(=O)N2C[C@H](O)COC[C@H]3O[C@@H](CC(=O)N(C)C)CC[C@@H]32)c1` had a viability index of 1.054 ± 0.0028.
`Cc1ccc(S(=O)(=O)Nc2cccc3c2O[C@H](CN(C)C(=O)Nc2ccc(C(F)(F)F)cc2)[C@H](C)CN([C@H](C)CO)C3=O)cc1` came in with a viability index of 1.07 ± 0.04.
`CO[C@H]1CN(C)C(=O)c2cc(NC(=O)NC(C)C)ccc2OC[C@H](C)N(C(=O)CN(C)C)C[C@@H]1C` gave a viability index of 1.12 ± 0.067.
As for `C/C=C/c1ccc([C@@H]2[C@@H](CO)N3CCCCN(S(=O)(=O)c4ccc(OC)cc4)C[C@H]23)cc1`, the viability index was determined as 1.011 ± 0.0064.
With `CNC(=O)C[C@@H]1CC[C@@H]2[C@H](COC[C@H](O)CN2Cc2ccccc2F)O1`, the viability index was 1.11 ± 0.016.
The value for `CO[C@H]1CN(C)C(=O)c2ccc(NC(=O)Nc3ccccc3)cc2OC[C@@H](C)N(C(=O)CC2CC2)C[C@H]1C` was 1.02 ± 0.056; that for `C[C@@H]1CCCCO[C@@H](CN(C)C(=O)c2ccncc2)[C@@H](C)CN([C@H](C)CO)C(=O)c2cc(NC(=O)CCC(F)(F)F)ccc2O1` was 1.05 ± 0.027; that for `CN(C)CC(=O)N1[C@H](CO)[C@@H](c2ccccc2)C12CN(C(=O)c1ccc(F)cc1)C2` was 1.04 ± 0.024.
In turn, `O=C(O)C[C@@H]1C[C@H]2c3cc(NC(=O)Cc4ccncc4)ccc3O[C@H]2[C@H](CO)O1` returned a viability index of 1.096 ± 0.0071.
Molecule `COc1ccc(-c2ccc([C@@H]3[C@H](C#N)N(C(=O)NC(C)C)[C@H]3CO)cc2)cc1` had a viability index of 1.03 ± 0.1.
`O=C(Nc1ccc(F)cc1)N1C[C@@H]2[C@H](c3ccccc31)[C@@H](CO)N2C(=O)c1ccncc1` showed a viability index of 0.9874 ± 0.0047.
As for `O=C(C[C@H]1C=C[C@@H](NC(=O)c2ccc3c(c2)OCO3)[C@@H](CO)O1)NC1Cc2ccccc2C1`, the viability index amounted to 0.9655 ± 0.0025.
With `CO[C@@H]1CN(C)C(=O)c2ccc(NC(=O)C3CC3)cc2OC[C@H](C)N(C(C)=O)C[C@H]1C`, the viability index was found to be 1.13 ± 0.056.
Take `C[C@H]1CN([C@@H](C)CO)C(=O)CCCn2nncc2CO[C@@H]1CN(C)S(=O)(=O)c1ccc(Oc2ccccc2)nc1`: the viability index amounted to 1.05 ± 0.065.
With `O=C(CN1CCOCC1)N1[C@@H](CO)[C@@H]2c3ccccc3NC[C@@H]21`, the viability index came to 1.07 ± 0.011.
`Cc1ccc(S(=O)(=O)N(C)C[C@@H]2Oc3cc(C#CC4CCCC4)ccc3S(=O)(=O)N([C@H](C)CO)C[C@H]2C)cc1` showed a viability index of 0.766 ± 0.091.
The value for `N#C[C@H]1[C@H](c2ccccc2)[C@@H](CO)N1C(=O)c1ccc2c(c1)OCO2` was 1.03 ± 0.084.
For the molecule `C[C@@H]1CN([C@H](C)CO)C(=O)c2cc(NS(=O)(=O)c3ccc(Cl)cc3)ccc2O[C@@H](C)CCCCO[C@@H]1CN(C)C(=O)CCCN(C)C`, the viability index was found to be 1.14 ± 0.097.
Then `C/C=C/c1ccc([C@H]2[C@@H](CO)N(S(=O)(=O)CC)[C@@H]2CN(C)C(=O)CC)cc1`, with 0.972 ± 0.042; and `COC(=O)C[C@H]1CC[C@@H]2[C@H](COc3ccc(NC(=O)Nc4c(C)noc4C)cc3C(=O)N2C)O1`, with 0.938 ± 0.07.
`Cc1noc(C)c1S(=O)(=O)N(C)C[C@H]1OCCCC[C@@H](C)Oc2ccc(NC(=O)CCC(F)(F)F)cc2C(=O)N([C@@H](C)CO)C[C@@H]1C` displayed a viability index of 1.08 ± 0.15.
Molecule `CCS(=O)(=O)NCC[C@H]1CC[C@@H](NS(=O)(=O)c2ccccc2C)[C@H](CO)O1` displayed a viability index of 0.93 ± 0.081.
Consider `CN(C)C(=O)c1cccc(-c2ccc3c(c2)[C@@H]2[C@@H](CCN2C(=O)Nc2ccc(F)cc2)[C@H](CO)N3C)c1`, for which the viability index is 1.11 ± 0.017.
Molecule `CN(C)C(=O)c1ccc(-c2ccc([C@@H]3[C@@H]4CN(Cc5ccc6c(c5)OCO6)C[C@H]3N4)cc2)cc1` had a viability index of 1.05 ± 0.098.
The value for `CO[C@@H]1CC[C@H]2CCOc3c(C#N)cccc3C(=O)N(C)CCCC(=O)N(C)C[C@@H]1O2` was 1.01 ± 0.015; that for `COc1ccc2c3c([nH]c2c1)[C@H](CO)N(C[C@]31CCN(CC2CCCC2)CC1)C(=O)CN1CCOCC1` was 1.04 ± 0.026; that for `CN(C)CC(=O)N[C@H]1C=C[C@@H](CC(=O)NCc2ccc(Cl)cc2)O[C@H]1CO` was 1.11 ± 0.071.
Consider `O=C(CCN1CCCCC1)NCC[C@@H]1CC[C@@H](NS(=O)(=O)c2cccc(Cl)c2)[C@H](CO)O1`, for which the viability index came out at 0.981 ± 0.028.
`CCc1cnc(N2[C@H](CO)[C@@H](c3ccc(-c4cccc(F)c4)cc3)[C@@H]2C#N)s1` registered a viability index of 1.0485 ± 0.00086.
`COc1ccccc1C(=O)Nc1ccc2c(c1)C(=O)N(C)C[C@@H](OC)[C@@H](C)CN(C(C)=O)[C@@H](C)CO2` returned a viability index of 1.06 ± 0.011.
The value for `Cc1noc(C)c1NC(=O)Nc1ccc2c(c1)C(=O)N([C@@H](C)CO)C[C@@H](C)[C@H](CN(C)S(=O)(=O)c1cccs1)OCCCC[C@@H](C)O2` was 1 ± 0.02; that for `COc1ccc(CNC(=O)N(C)C[C@@H]2OCc3ccccc3-c3c(n(C)c4ccccc34)C(=O)N([C@@H](C)CO)C[C@@H]2C)cc1` was 0.966 ± 0.15; that for `CN1c2ccc(Br)cc2[C@@H]2[C@@H](CCN2C(=O)Nc2cccc(F)c2)[C@@H]1CO` was 1.07 ± 0.041.
`C[C@@H]1CCCCO[C@H](CN(C)C(=O)NC2CCCCC2)[C@H](C)CN([C@@H](C)CO)C(=O)c2cc(N(C)C)ccc2O1` gave a viability index of 1.0461 ± 0.00037.
On to `CCCN1[C@@H]2c3ccc(-c4ccccc4F)c(=O)n3C[C@@H]2[C@@H](CO)[C@@H]1C(=O)N1CCOCC1`, for which the viability index worked out at 0.97 ± 0.086.
Then `O=C(CC1CC1)N1CC(=O)N2[C@@H](CO)[C@@H](c3ccc(C#Cc4cccc(F)c4)cc3)[C@@H]2C1`, with 1 ± 0.075.
In the case of `CO[C@H]1CN(C)C(=O)c2ccc(NC(=O)NC(C)C)cc2OC[C@@H](C)N(Cc2ccc(-c3ccccn3)cc2)C[C@H]1C`, the viability index came out at 1.06 ± 0.069.
Then `C/C=C/c1ccc2n(c1=O)C[C@@H]1[C@@H](CO)[C@H](C(=O)NCc3ccc4c(c3)OCO4)[C@H]2N1C(=O)COC.C/C=C\c1ccc2n(c1=O)C[C@@H]1[C@@H](CO)[C@H](C(=O)NCc3ccc4c(c3)OCO4)[C@H]2N1C(=O)COC`, with 1.08 ± 0.046; and `CCN(C[C@@H]1[C@@H](c2ccccc2)[C@H](CO)N1S(C)(=O)=O)C(=O)C1CCCC1`, with 0.972 ± 0.036; and `CS(=O)(=O)N1Cc2cc(C(=O)O)nc(-c3cccc(-c4ccccc4F)c3)c2[C@@H]1CCO`, with 1.06 ± 0.013.
Consider `CO[C@@H]1CC[C@@H]2CCN(C)C(=O)CC3(CCCCC3)CN(C)C(=O)c3cc(C#N)ccc3OC[C@H]1O2`, for which the viability index is 1.0482 ± 0.00013.
Consider `CC(C)(O)C#Cc1ccc([C@@H]2[C@H](CO)N3CCCCN(S(C)(=O)=O)C[C@@H]23)cc1`, for which the viability index was found to be 1.04 ± 0.0088.
The value for `CN1c2ccc(-c3cccc(C#N)c3)cc2[C@@H]2[C@@H](CCN2C(=O)Cc2ccccn2)[C@H]1CO` was 1.08 ± 0.061.
The value for `O=C1CN(S(=O)(=O)c2cccc(F)c2)C[C@H]2[C@H](c3ccc(C4=CCCC4)cc3)[C@@H](CO)N12` was 0.99159 ± 0.00054; that for `N#C[C@@H]1[C@@H](c2ccccc2-c2cccc(F)c2)[C@H](CO)N1C(=O)NC1CCCCC1` was 1.08 ± 0.12.
`O=C(Cc1ccccc1)N1C[C@H]2[C@@H](c3ccccc31)[C@@H](CO)N2S(=O)(=O)c1ccccc1` showed a viability index of 0.98 ± 0.16.
Consider `C[C@H]1COCc2cnnn2CC[C@@H](Cc2ccccc2)C(=O)N1`, for which the viability index was determined as 1.06 ± 0.027.
Then `C[C@H](CO)N1C[C@H](C)[C@@H](CN(C)Cc2ccc3c(c2)OCO3)Oc2ccc(NS(=O)(=O)c3cn(C)cn3)cc2CC1=O`, with 1.07 ± 0.046; and `CCS(=O)(=O)N1CC(=O)N2[C@@H](CO)[C@@H](c3ccc(C#CC4CCCCC4)cc3)[C@@H]2C1`, with 1.16 ± 0.038.
In turn, `COc1ccccc1NC(=O)N1C[C@@H](O)COC[C@H]2O[C@H](CC(=O)NCCc3ccncc3)CC[C@@H]21` had a viability index of 1.03 ± 0.067.
The molecule `COc1ccccc1CN1[C@H](CO)[C@@H](c2ccccc2)C12CN(C(=O)c1cnccn1)C2` registered a viability index of 1.09 ± 0.013.
Molecule `COCC(=O)N1CC[C@H]2[C@H](CO)Nc3ccc(C#Cc4ccc(F)cc4)cc3[C@H]21` registered a viability index of 0.99 ± 0.074.
In turn, `CCCC(=O)N1C[C@@]2(C1)CN([C@@H](CO)c1c2c2ccc(OC)cc2n1C)C(=O)Nc1cccc(F)c1` had a viability index of 0.997 ± 0.13.
Molecule `O=C(C[C@H]1C=C[C@H](NC(=O)c2ccc3c(c2)OCO3)[C@@H](CO)O1)NC1Cc2ccccc2C1` showed a viability index of 0.983 ± 0.067.
Consider `O=C(O)C[C@H]1C=C[C@@H](NC(=O)Nc2cc(F)ccc2F)[C@H](CO)O1`, for which the viability index turned out to be 0.981 ± 0.069.
The molecule `CCCC(=O)Nc1ccc2c(c1)OC[C@@H](C)N(CC1CCOCC1)C[C@@H](C)[C@H](OC)CN(C)C2=O` registered a viability index of 0.964 ± 0.1.
In turn, `O=C(Nc1ccccc1)N1CC(=O)N2[C@H](C1)[C@@H](c1ccc(C#CC3CCCCC3)cc1)[C@@H]2CO` displayed a viability index of 1.01 ± 0.02.
`Cc1noc(C)c1NC(=O)Nc1ccc2c(c1)C(=O)N(C)[C@H]1CC[C@H](CC(=O)Nc3ccc4c(c3)CCCC4)O[C@@H]1CO2` displayed a viability index of 1.086 ± 0.0014.
With `C[C@H](CO)N1C[C@H](C)[C@H](CN(C)Cc2ccc3c(c2)OCO3)Oc2c(NC(=O)c3ccncc3)cccc2C1=O`, the viability index stood at 0.948 ± 0.033.
`COc1ccc2c3c([C@@H](CO)N(C[C@]33CCN(CC3)C(=O)Nc3ccc(F)cc3F)C(=O)Nc3ccc(F)cc3)n(C)c2c1`: the viability index turned out to be 1.08 ± 0.07.
Then `C[C@H](CO)N1C[C@H](C)[C@H](CN(C)C(=O)Nc2cccc(C(F)(F)F)c2)OCc2cn(nn2)CCCC1=O`, with 1.01 ± 0.036.
Molecule `CC(=O)N1CC2(C1)[C@@H](c1ccc(-c3cccc(C#N)c3)cc1)[C@@H](CO)N2CCC(F)(F)F` returned a viability index of 1.05 ± 0.024.
